# According to the supplement of paper PMC4967469:
# A lower IC50 marks a more sensitive line; where the fit passes the top or lowest dose, that dose stands as a limit. AUC sums up the same curve from the lowest dose to the 256-fold higher top dose; the more sensitive the line, the further below 1.
# Compound: CC[C@H](Nc1ncnc2[nH]cnc12)c1nc2cccc(F)c2c(=O)n1-c1ccccc1 [CAL-101]
# Assay: Viability of human cancer cell lines after 72 h of drug (GDSC screen)
# Description: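 Human cancer cell lines in 384-well plates, medium with 10% serum, drug for 72 h over a 256-fold dose range (nine 2-fold or five 4-fold steps up to the top dose). Adherent lines were fixed and stained with the nucleic acid dye Syto60, suspension lines read with resazurin; signal relative to control wells, capped at 0 and 100%. One two-parameter sigmoid per drug and line, fitted in a mixed model over all curves with the slope shared within a line.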
Cell Line,AUC,IC50 [µM]
"NCI-H2228 (lung adenocarcinoma, adherent, top dose 20 µM)",0.928,> 20
"NCI-H2291 (lung adenocarcinoma, adherent, top dose 20 µM)",0.984,> 20
"NCI-H2342 (lung adenocarcinoma, adherent, top dose 20 µM)",0.967,> 20
"NCI-H2347 (lung adenocarcinoma, adherent, top dose 20 µM)",0.924,> 20
"NCI-H2405 (lung adenocarcinoma, adherent, top dose 20 µM)",0.986,> 20
"NCI-H2444 (non-small cell lung carcinoma, adherent, top dose 20 µM)",0.983,> 20
"NCI-H2452 (mesothelioma, adherent, top dose 20 µM)",0.984,> 20
"NCI-H3122 (lung adenocarcinoma, adherent, top dose 20 µM)",0.941,> 20
"NCI-SNU-1 (stomach, suspension, top dose 20 µM)",0.951,> 20
"NCI-SNU-5 (stomach, suspension, top dose 20 µM)",0.989,> 20
"NCI-SNU-16 (stomach, suspension, top dose 20 µM)",0.991,> 20
"NEC8 (testis, adherent, top dose 20 µM)",0.991,> 20
"NH-12 (neuroblastoma, adherent, top dose 20 µM)",0.941,> 20
"NKM-1 (acute myeloid leukaemia, suspension, top dose 20 µM)",0.599,2.35
"NMC-G1 (glioma, adherent, top dose 20 µM)",0.901,> 20
"NOMO-1 (acute myeloid leukaemia, suspension, top dose 20 µM)",0.805,11.8
"NOS-1 (osteosarcoma, adherent, top dose 20 µM)",0.772,9.58
"NTERA-2 cl.D1 (testis, adherent, top dose 20 µM)",0.946,> 20
"NU-DUL-1 (B-cell lymphoma, suspension, top dose 20 µM)",0.091,0.0854
"NUGC-3 (stomach, adherent, top dose 20 µM)",0.97,> 20
"NUGC-4 (stomach, adherent, top dose 20 µM)",0.988,> 20

Cell Line,AUC,IC50 [µM]
"NY (osteosarcoma, adherent, top dose 20 µM)",0.987,> 20
"OACM5-1 (oesophagus, semi-adherent, top dose 20 µM)",0.875,> 20
"OACp4C (oesophagus, adherent, top dose 20 µM)",0.883,> 20
"OAW-28 (ovary, adherent, top dose 20 µM)",0.876,> 20
"OAW-42 (ovary, adherent, top dose 20 µM)",0.92,> 20
"OC-314 (ovary, adherent, top dose 20 µM)",0.959,> 20
"OCI-AML2 (acute myeloid leukaemia, suspension, top dose 20 µM)",0.982,> 20
"OCI-AML3 (acute myeloid leukaemia, suspension, top dose 20 µM)",0.782,7.12
"OCI-AML5 (acute myeloid leukaemia, suspension, top dose 20 µM)",0.81,9.4
"OCI-LY-19 (B-cell lymphoma, suspension, top dose 20 µM)",0.817,10.1
"OCI-M1 (acute myeloid leukaemia, suspension, top dose 20 µM)",0.839,9.23
"OCUB-M (breast, adherent, top dose 20 µM)",0.954,> 20
"OCUM-1 (stomach, adherent, top dose 20 µM)",0.987,> 20
"OE19 (oesophagus, adherent, top dose 20 µM)",0.986,> 20
"OE21 (oesophagus, adherent, top dose 20 µM)",0.978,> 20
"OE33 (oesophagus, adherent, top dose 20 µM)",0.947,> 20
"OMC-1 (cervix, adherent, top dose 20 µM)",0.977,> 20
"ONS-76 (medulloblastoma, adherent, top dose 20 µM)",0.96,> 20
"OPM-2 (myeloma, suspension, top dose 20 µM)",0.962,> 20
"OS-RC-2 (kidney, adherent, top dose 20 µM)",0.808,16.7
"OSC-19 (head and neck, adherent, top dose 20 µM)",0.936,> 20

Cell Line,AUC,IC50 [µM]
"OSC-20 (head and neck, adherent, top dose 20 µM)",0.953,> 20
"OV-7 (ovary, adherent, top dose 20 µM)",0.869,> 20
"OV-17R (ovary, adherent, top dose 20 µM)",0.844,> 20
"OV-56 (ovary, adherent, top dose 20 µM)",0.976,> 20
"OV-90 (ovary, adherent, top dose 20 µM)",0.981,> 20
"OVCA420 (ovary, adherent, top dose 20 µM)",0.972,> 20
"OVCA433 (ovary, adherent, top dose 20 µM)",0.967,> 20
"OVCAR-3 (ovary, adherent, top dose 20 µM)",0.979,> 20
"OVCAR-4 (ovary, adherent, top dose 20 µM)",0.947,> 20
"OVCAR-5 (ovary, adherent, top dose 20 µM)",0.95,> 20
"OVCAR-8 (ovary, adherent, top dose 20 µM)",0.955,> 20
"OVISE (ovary, adherent, top dose 20 µM)",0.912,> 20
"OVK-18 (ovary, adherent, top dose 20 µM)",0.986,> 20
"OVKATE (ovary, adherent, top dose 20 µM)",0.925,> 20
"OVMIU (ovary, adherent, top dose 20 µM)",0.874,> 20
"OVTOKO (ovary, adherent, top dose 20 µM)",0.889,> 20
"P12-ICHIKAWA (T-cell lymphoblastic leukaemia, suspension, top dose 20 µM)",0.771,6.03
"P30-OHK (lymphoblastic leukaemia, suspension, top dose 20 µM)",0.595,2.17
"P31-FUJ (acute myeloid leukaemia, suspension, top dose 20 µM)",0.995,> 20
"P32-ISH (Burkitt lymphoma, suspension, top dose 20 µM)",0.931,19.1
"PA-1 (ovary, adherent, top dose 20 µM)",0.908,17

Cell Line,AUC,IC50 [µM]
"PA-TU-8902 (pancreas, adherent, top dose 20 µM)",0.968,> 20
"PA-TU-8988T (pancreas, adherent, top dose 20 µM)",0.969,> 20
"PANC-02-03 (pancreas, adherent, top dose 20 µM)",0.952,> 20
"PANC-03-27 (pancreas, adherent, top dose 20 µM)",0.899,> 20
"PANC-04-03 (pancreas, adherent, top dose 20 µM)",0.972,> 20
"PANC-08-13 (pancreas, adherent, top dose 20 µM)",0.904,> 20
"PANC-10-05 (pancreas, adherent, top dose 20 µM)",0.836,19.1
"PC-3 [JPC-3] (lung adenocarcinoma, adherent, top dose 20 µM)",0.924,> 20
"PC-14 (lung adenocarcinoma, adherent, top dose 20 µM)",0.985,> 20
"PCI-4B (head and neck, adherent, top dose 20 µM)",0.975,> 20
"PCI-6A (head and neck, adherent, top dose 20 µM)",0.98,> 20
"PCI-15A (head and neck, adherent, top dose 20 µM)",0.975,> 20
"PCI-30 (head and neck, adherent, top dose 20 µM)",0.98,> 20
"PCI-38 (head and neck, adherent, top dose 20 µM)",0.983,> 20
"PE/CA-PJ15 (head and neck, adherent, top dose 20 µM)",0.96,> 20
"PEO1 (ovary, adherent, top dose 20 µM)",0.957,> 20
"PF-382 (T-cell lymphoblastic leukaemia, suspension, top dose 20 µM)",0.853,12.6
"PFSK-1 (medulloblastoma, adherent, top dose 20 µM)",0.957,> 20
"PL4 (pancreas, adherent, top dose 20 µM)",0.964,> 20
